Where “and” joins values, the source holds several entries; their conditions need not be identical. Identical values can stand only once. This list was built around the results that the source calls inconclusive (neither active nor inactive); the mix of calls is not that of the screen. Potencies beside an inconclusive call are fits to weak or partial responses and may not hold up. Calls of active or inactive are those of the source. The call rests on the fitted dose curve; in most records, active means well fitted cell-killing curve with a large enough effect; inconclusive means small, poorly fitted or top-dose-only effect, or effect the other way; inactive means no such curve, though single readings can be large or run the other way.
Legend:
[1] = Viability qHTS for spleen associated tyrosine kinase inhibitor (SYKi) naive MV4-11 cells (AID 1963823); conditions: MV4-11 AML viability, CellTiter-Glo luminescence, 72 h; series mostly up to 45 µM; further: nearly all actives have a fitted effect of over 40% in size
Method in brief: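 Cells: MV4-11, SYK inhibitor naive, 500 per well. Treatment: library compounds, 72 hr, 37 C, 5% CO2. Read-out: CellTiter-Glo luminescence after 10 min RT.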

[2] = Viability qHTS for spleen associated tyrosine kinase inhibitor (SYKi) drug resistant MV4-11 cells (AID 1963824); conditions: SYKi-resistant MV4-11 viability, CellTiter-Glo, 72 h; series mostly up to 45 µM; further: nearly all actives have a fitted effect of over 35% in size
Method in brief: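 SYK inhibitor-resistant MV4-11 AML cells, 500 per well, added to predispensed compounds and incubated 72 hr at 37 C, 5% CO2. Viability measured by CellTiter-Glo luminescence after 10 min at room temperature.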
Potency means the concentration at half of the fitted maximal effect; tags describe the fitted curve by direction and shape.

With `CCN(CC)CCN(Cc1ccc(-c2ccc(C(F)(F)F)cc2)cc1)C(=O)Cn1c(SCc2ccc(F)cc2)nc(=O)c2c1CCC2` the Potency [1] was active: 2.91 µM and the Potency [2] was active: 3.26 µM.

In the case of `C[C@@H]1C[C@H]2[C@@H]3C[C@H](F)C4=CC(=O)C=C[C@]4(C)[C@@]3(F)[C@@H](O)C[C@]2(C)[C@@]1(O)C(=O)CO`, the Potency [1] is reported as inconclusive: 2.59 µM [cytotoxic, partial curve, poor fit] and the Potency [2] is reported as inconclusive: 2.91 µM [cytotoxic, partial curve, poor fit].

In the case of `N#Cc1ccc(N(Cc2ccc(Br)cc2)n2cnnc2)cc1`, the Potency [1] is reported as inconclusive: 16.6 µM [cytotoxic, partial curve] and the Potency [2] is reported as inconclusive: 20.9 µM [cytotoxic, partial curve].

For `O=C(O)c1cn(C2CC2)c2cc(N3C[C@@H]4C[C@H]3CN4)c(F)cc2c1=O`, the Potency [1] was “inactive” and the Potency [2] was inconclusive: 20.6 µM [cytotoxic, single point].

For `COc1cc(C(=O)OC[C@H]2O[C@@H](Oc3ccccc3/C=C/C(=O)O)[C@H](O)[C@@H](O)[C@@H]2O)cc(OC)c1OC`, the Potency [1] was inconclusive: 0.0112 µM [rising, full curve, poor fit] and the Potency [2] was inconclusive: 0.399 µM [cytotoxic, full curve, poor fit].

In the case of `CCCCC1(COC(=O)CCC(=O)O)C(=O)N(c2ccccc2)N(c2ccccc2)C1=O`, the Potency [1] is reported as “inactive” and the Potency [2] is reported as “inactive”.

For `Cc1ccsc1C(=CCCN1CCC[C@@H](C(=O)O)C1)c1sccc1C`, the Potency [1] was “inactive and inconclusive: 18.6 µM [cytotoxic, partial curve, poor fit]” and the Potency [2] was inconclusive: 0.8 nM and inconclusive: 18.6 µM [cytotoxic, partial curve].

For `CC(=O)O[C@H]1[C@H](Oc2ccccc2COC(=O)C2(O)C=CCCC2=O)O[C@H](CO)[C@@H](O)[C@@H]1O` (stereo partly specified), the Potency [1] was “inactive” and the Potency [2] was “inactive”.

In the case of `O=C1CC(c2c[nH]c3ccc(F)cc23)C(=O)N1` (stereo unspecified), the Potency [1] is reported as “inactive” and the Potency [2] is reported as “inactive”.

In the case of `C[C@@H]1O[C@@H](O[C@H]2[C@H](OC(=O)[C@]34CCC(C)(C)C[C@H]3C3=CCC5[C@@]6(C)C[C@H](O)[C@H](O[C@@H]7O[C@H](CO)[C@@H](O)[C@H](O)[C@H]7O)[C@](CO)(C(=O)O)C6CC[C@@]5(C)[C@]3(C)C[C@H]4O)OC[C@H](O)[C@@H]2O)[C@H](O)[C@H](O)[C@H]1O[C@@H]1OC[C@@H](O)[C@H](O[C@@H]2OC[C@](O)(CO)[C@H]2O)[C@H]1O` (stereo partly specified), the Potency [1] is reported as inconclusive: 0.776 µM [cytotoxic, full curve] and the Potency [2] is reported as active: 0.776 µM.

In the case of `O=C(O)Cc1cn([C@@H]2OC[C@@H](O[C@@H]3O[C@H](CO)[C@@H](O)[C@H](O)[C@H]3O)[C@H](O)[C@H]2O[C@@H]2O[C@H](CO)[C@@H](O)[C@H](O)[C@H]2O)c2ccccc12`, the Potency [1] is reported as inconclusive: 1.93 µM [cytotoxic, partial curve, poor fit] and the Potency [2] is reported as “inactive”.

In the case of `CCOC(=O)NNc1ccc(N(CC)CC(C)O)nn1` (stereo unspecified), the Potency [1] is reported as inconclusive: 0.0376 µM [cytotoxic, single point] and the Potency [2] is reported as “inactive”.

With `O=C(O)CC(=O)OC[C@H]1O[C@@H](Oc2ccc3c(c2)OC[C@H]2c4cc5c(cc4O[C@@H]32)OCO5)[C@H](O)[C@@H](O)[C@@H]1O` the Potency [1] was “inactive” and the Potency [2] was “inactive”.

With `CCCC/C=C\CCCCCc1cc(=O)c2ccccc2n1C` the Potency [1] was inconclusive: 11.4 µM [cytotoxic, single point] and the Potency [2] was inconclusive: 0.508 µM [cytotoxic, partial curve, poor fit].

For `Cc1ccc(S(=O)(=O)N2CCC[C@H]2c2ccc(F)cc2)cc1`, the Potency [1] was inconclusive: 13 µM [cytotoxic, partial curve] and the Potency [2] was inconclusive: 16.4 µM [cytotoxic, partial curve].

For `CC1=C2C(O)C(=O)OC(c3ccoc3)C2(C)CCC1O` (stereo unspecified), the Potency [1] was inconclusive: 9.2 µM [cytotoxic, partial curve] and the Potency [2] was inconclusive: 16.4 µM [cytotoxic, partial curve].

With `C[C@@H](NC(=O)c1ccc(C#Cc2cccc(F)c2)cn1)C(C)(C)O` the Potency [1] was inconclusive: 25.9 µM [cytotoxic, single point] and the Potency [2] was inconclusive: 16.4 µM [cytotoxic, single point].

In the case of `CCC(C)c1ccc(NC(=O)Cn2cnc3c2c(=O)n(C)c(=O)n3C)cc1` (stereo unspecified), the Potency [1] is reported as inconclusive: 11.6 µM [cytotoxic, partial curve] and the Potency [2] is reported as inconclusive: 16.4 µM [cytotoxic, partial curve, poor fit].

Source: PubChem BioAssay (NCATS)
